Hit rate of the full screen: of about 48,000 compounds, about 550 (1.1%) were called active. Not shown: some 4% with an inconclusive outcome. Rule as the data show it: active = potency below about 15 µM; inconclusive = mostly about 16 µM to 33 µM; inactive = weaker than that. The list shows a part of the results. Where only a bound is given, the exact number is not on record here.
Potency is read from the fitted curve at half-maximal effect.

This assay addresses Lysosomal acid glucosylceramidase (Homo sapiens) (UniProt P04062). Kind of assay: Glucocerebrosidase.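 Also: the screen sought inhibitors.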 The following applies: purified enzyme, resorufin glucoside fluorescence (screen aimed at inhibitors), 20 min. Put shortly: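 Wild-type enzyme at 0.2 nM final in 50mM citric acid/KH2PO4, 10mM sodium taurocholate, 0.01% tween-20, pH 5.9, with resorufin beta-D-glucopyranoside at 30 uM final. Compounds titrated, 20 min at RT, red fluorescence read; AC50 from titration.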
Sequence of UniProt P04062 (P04062 whole entry, looked up): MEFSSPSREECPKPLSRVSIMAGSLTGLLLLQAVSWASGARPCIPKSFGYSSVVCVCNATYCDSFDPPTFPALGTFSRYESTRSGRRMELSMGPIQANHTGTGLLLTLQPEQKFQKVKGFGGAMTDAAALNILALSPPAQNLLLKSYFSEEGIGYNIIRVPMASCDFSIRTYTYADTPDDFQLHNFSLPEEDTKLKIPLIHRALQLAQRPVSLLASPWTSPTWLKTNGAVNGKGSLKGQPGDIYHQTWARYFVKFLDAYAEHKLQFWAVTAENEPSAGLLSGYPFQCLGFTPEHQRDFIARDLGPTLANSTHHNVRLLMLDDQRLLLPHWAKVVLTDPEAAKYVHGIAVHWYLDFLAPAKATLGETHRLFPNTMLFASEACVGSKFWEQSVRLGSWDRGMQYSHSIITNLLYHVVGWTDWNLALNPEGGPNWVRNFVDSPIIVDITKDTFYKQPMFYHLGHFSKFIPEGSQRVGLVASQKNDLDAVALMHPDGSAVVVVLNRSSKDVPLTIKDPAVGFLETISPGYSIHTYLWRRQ
With `Cc1cccc(C)c1NS(=O)(=O)c1c(C)[nH]c(=O)[nH]c1=O`, the Potency is inactive: > 76.9 µM.

For the molecule `CC(C(=O)NC1CCCCCC1)N(c1ccccc1)S(C)(=O)=O` (centres undefined), the Potency is inactive: > 76.9 µM.

As for `O=C(CCn1nnc2ccccc21)Nc1nnc(COc2ccc(F)cc2)s1`, the Potency was inactive: > 76.9 µM.

For `COc1ccc(-c2nnc3ccc(SCC(=O)NCc4ccco4)nn23)cc1`, the Potency is inactive: > 76.9 µM.

Consider `COc1ccc(C(=O)CSc2nnc(CNC(=O)c3ccc(OC)c(OC)c3)n2C)cc1`, for which the Potency is inactive: > 76.9 µM.

Take `CC(Sc1nc(N2CCOCC2)nc(N2CCOCC2)n1)C(=O)Nc1ccccc1` (centres undefined): the Potency was inactive: > 76.9 µM.

Turning to `CCn1nnnc1SCC(=O)c1ccc(NC(C)=O)cc1`, the Potency was inactive: > 76.9 µM.

Turning to `Cc1ccc(N(CC(=O)N2CCn3c2nc2ccccc23)S(=O)(=O)c2c(C)n[nH]c2C)cc1`, the Potency is inactive: > 76.9 µM.

Consider `COc1ccccc1N1CCN(C(=O)CCNS(=O)(=O)c2ccc3c(c2)CCC(=O)N3)CC1`, for which the Potency was inactive: > 76.9 µM.

As for `CC1(C)Cc2ccccc2-c2nnc(-c3cccc(O)c3)n21`, the Potency was inactive: > 76.9 µM.

With `CCN(C(=O)Cc1cccs1)c1nnc(-c2cccnc2)s1`, the Potency is inactive: > 76.9 µM.

Take `CC(C(=O)NCc1ccccc1)N(CCN1CCOCC1)C(=O)c1snc(C(N)=O)c1N` (centres undefined): the Potency was inactive: > 76.9 µM.

In the case of `COC(=O)CSc1ccccc1C(=O)OC`, the Potency was inactive: > 76.9 µM.

Turning to `Cc1cc(=O)oc(C)c1C(=O)NCCC(C)C`, the Potency is inactive: > 76.9 µM.

Consider `CCn1c(=N)c(C(=O)NCCCOC)cc2c(=O)n3cccc(C)c3nc21`, for which the Potency was inactive: > 76.9 µM.

With `CCC(=O)Nc1sc(C(=O)N2CCCCC2)c(C)c1C#N`, the Potency is inactive: > 76.9 µM.

As to `CC(C)=CC(=O)OCC(=O)NC(=O)NC(C)(C)C`, the Potency was inactive: > 76.9 µM.

On to `COc1nc(-c2ccccc2)cc(C(F)(F)F)n1`, for which the Potency was inactive: > 76.9 µM.

In the case of `O=C(NCc1ccco1)c1ccc(CS(=O)(=O)Cc2ccc(F)cc2)o1`, the Potency was inactive: > 76.9 µM.

Consider `C1CCN(c2nc3nonc3nc2N2CCCC2)C1`, for which the Potency was inactive: > 76.9 µM.

As for `CSc1ncccc1C(=O)OCC(=O)N1CCOCC1`, the Potency is inactive: > 76.9 µM.

In the case of `O=C(CC1(O)C(=O)N(Cc2ccccc2)c2ccccc21)c1ccncc1` (centres undefined), the Potency was inactive: > 76.9 µM.

Regarding `O=C(CSc1nnc(-c2cccnc2)o1)OC1CCCCC1`, the Potency was inactive: > 76.9 µM.

For the molecule `O=C(O)c1cccc(NS(=O)(=O)c2ccc3nnn(O)c3c2)c1`, the Potency is inactive: > 76.9 µM.

Take `COc1ccc(N2C(=O)CCC(C(=O)O)C2c2ccc(F)cc2)cc1` (centres undefined): the Potency was inactive: > 76.9 µM.

For `Cc1cc(C)n2nnnc2c1C#N`, the Potency is inactive: > 76.9 µM.

For the molecule `Cc1ccc(-c2nn(CC(=O)NCC3CCCO3)c(=O)c3ccccc23)cc1` (centres undefined), the Potency is inactive: > 76.9 µM.

Consider `Cc1nc2nc(C)n(-c3ccccc3)c2s1`, for which the Potency is inactive: > 76.9 µM.

`CCOc1c(Br)ccc2c1sc1nc[nH]c(=O)c12`: the Potency is inactive: > 76.9 µM.

With `O=C1c2ccccc2NC2CCCCC12` (centres undefined), the Potency is inactive: > 76.9 µM.

`O=C1Nc2ccccc2C(O)(C(=O)NCc2ccco2)N1c1ccccc1` (centres undefined): the Potency was inactive: > 76.9 µM.

As for `COc1ccc(C2(C(=O)NCCCN3CCOCC3)CCOCC2)cc1`, the Potency was inactive: > 76.9 µM.

In the case of `COCCNC(=O)C1CC(=O)N(C2CCCC2)C1` (centres undefined), the Potency was inactive: > 76.9 µM.

In the case of `O=C(NCc1ccco1)c1cc(S(=O)(=O)N2CCOCC2)c(Cl)cc1Cl`, the Potency is inactive: > 76.9 µM.

Take `O=C(NCc1nc(-c2ccccc2)no1)c1ccc(Br)o1`: the Potency was inactive: > 76.9 µM.

In the case of `C=CCNc1nnc(SCC(=O)N2CCCCC2)c2ccccc12`, the Potency is inactive: > 76.9 µM.

As to `O=C(N1CCOCC1)N1CCN(c2nc(-c3ccccc3)cs2)CC1`, the Potency is inactive: > 76.9 µM.

Take `COc1ccc(C)cc1NC(=O)CSc1nnc(COc2ccc(C)cc2)n1Cc1ccco1`: the Potency was inactive: > 76.9 µM.

Turning to `CCc1nnc(NC(=O)C2CCCN(c3nc(C)cc(C)n3)C2)s1` (centres undefined), the Potency is inactive: > 76.9 µM.

As for `CCOC(=O)Nc1sc2c(c1C(=O)OCC)CCC2`, the Potency was inactive: > 76.9 µM.

On to `CCCCc1c(C)c2ccc(OC)c(/C(C)=N\O)c2oc1=O`, for which the Potency was inactive: > 76.9 µM.

Turning to `CSCCOC(=O)C1=C(C)NC(=O)CC1c1ccccc1Cl` (centres undefined), the Potency was inactive: > 76.9 µM.

For `O=C(CCCC(=O)OCC1CCCO1)OCC1CCCO1` (centres undefined), the Potency is inactive: > 76.9 µM.

For `N#Cc1ccc(CSc2nnc(NC(=O)C3CCCO3)s2)cc1` (centres undefined), the Potency is inactive: > 76.9 µM.

As to `CCOC(=O)CSc1cccc2cccnc12`, the Potency was inactive: > 76.9 µM.

Turning to `Cc1cccc(NC(=O)Cn2cnc3ccc(S(=O)(=O)N4CCC(C)CC4)cc3c2=O)n1`, the Potency is inactive: > 76.9 µM.

Consider `O=P(O)(O)CP(=O)(O)O`, for which the Potency was inactive: > 76.9 µM.

For `CCSc1nc2c(c(=O)[nH]1)C(c1cccnc1)C(C(=O)OC(C)C)=C(C)N2` (centres undefined), the Potency was inactive: > 76.9 µM.

As for `Cc1nn(Cc2ccccc2)c(Cl)c1C(=O)OCc1nnc(-c2ccc(Cl)cc2)o1`, the Potency was inactive: > 76.9 µM.

For the molecule `O=C(Nc1cccc(Cl)c1)OCc1ccccn1`, the Potency is inactive: > 76.9 µM.

With `O=C(CN1C(=O)CC(c2ccccc2)=Nc2ccccc21)NCc1ccco1`, the Potency was inactive: > 76.9 µM.

On to `Cn1c(SCC(=O)N2CCOCC2)nnc1-c1cccc(NC(=O)c2ccccc2)c1`, for which the Potency was inactive: > 76.9 µM.

For `COc1ccccc1NC(=O)C1=C(C)NC2=C(C(=O)CCC2)C1c1ccc2c(c1)OCO2` (centres undefined), the Potency was inactive: > 76.9 µM.

With `O=C(O)C1CCN(C(=O)c2scc3c2OCCO3)CC1`, the Potency was inactive: > 76.9 µM.

Consider `CCOc1ccc(NC(=O)c2oc3ccccc3c2NC(=O)C(C)C)cc1`, for which the Potency was inactive: > 76.9 µM.

For the molecule `c1ccc(-c2nnc3sc(-c4ccncc4)nn23)cc1`, the Potency is inactive: > 76.9 µM.

For the molecule `CCOC(=O)N1CCC(NC(=O)Cc2ccc(-n3c(=O)[nH]c4ccccc4c3=O)cc2)CC1`, the Potency was inactive: > 76.9 µM.

`Cn1c(Cn2nnc3ccccc32)nnc1SCC(N)=O`: the Potency was inactive: > 76.9 µM.

`CCOc1ccc(-c2[nH]ncc2Oc2ccccc2OCC)c(O)c1`: the Potency is inactive: > 76.9 µM.

These data come from PubChem BioAssay AID360 (National Center for Advancing Translational Sciences (NCATS), 2006).
